Results on 1 molecule are retold here after patent US9777070B2, “Anti-PTK7 antibody-drug conjugates” (Pfizer Inc., priority 2014, dated 2017).

In the assay the target is T1, PTK7 on cancer cell lines (H661, H446, U2OS) (Homo sapiens, UniProt Q13308).
T1 construct: cancer cell lines with endogenous expression of PTK7; endogenous in cells; host or cells: cultured cancer cell lines (e.g. H661, H446, U2OS, H520, H1048, OE19, OE21, H1975, EKVX)
T1 sequence (Q13308 31-1070): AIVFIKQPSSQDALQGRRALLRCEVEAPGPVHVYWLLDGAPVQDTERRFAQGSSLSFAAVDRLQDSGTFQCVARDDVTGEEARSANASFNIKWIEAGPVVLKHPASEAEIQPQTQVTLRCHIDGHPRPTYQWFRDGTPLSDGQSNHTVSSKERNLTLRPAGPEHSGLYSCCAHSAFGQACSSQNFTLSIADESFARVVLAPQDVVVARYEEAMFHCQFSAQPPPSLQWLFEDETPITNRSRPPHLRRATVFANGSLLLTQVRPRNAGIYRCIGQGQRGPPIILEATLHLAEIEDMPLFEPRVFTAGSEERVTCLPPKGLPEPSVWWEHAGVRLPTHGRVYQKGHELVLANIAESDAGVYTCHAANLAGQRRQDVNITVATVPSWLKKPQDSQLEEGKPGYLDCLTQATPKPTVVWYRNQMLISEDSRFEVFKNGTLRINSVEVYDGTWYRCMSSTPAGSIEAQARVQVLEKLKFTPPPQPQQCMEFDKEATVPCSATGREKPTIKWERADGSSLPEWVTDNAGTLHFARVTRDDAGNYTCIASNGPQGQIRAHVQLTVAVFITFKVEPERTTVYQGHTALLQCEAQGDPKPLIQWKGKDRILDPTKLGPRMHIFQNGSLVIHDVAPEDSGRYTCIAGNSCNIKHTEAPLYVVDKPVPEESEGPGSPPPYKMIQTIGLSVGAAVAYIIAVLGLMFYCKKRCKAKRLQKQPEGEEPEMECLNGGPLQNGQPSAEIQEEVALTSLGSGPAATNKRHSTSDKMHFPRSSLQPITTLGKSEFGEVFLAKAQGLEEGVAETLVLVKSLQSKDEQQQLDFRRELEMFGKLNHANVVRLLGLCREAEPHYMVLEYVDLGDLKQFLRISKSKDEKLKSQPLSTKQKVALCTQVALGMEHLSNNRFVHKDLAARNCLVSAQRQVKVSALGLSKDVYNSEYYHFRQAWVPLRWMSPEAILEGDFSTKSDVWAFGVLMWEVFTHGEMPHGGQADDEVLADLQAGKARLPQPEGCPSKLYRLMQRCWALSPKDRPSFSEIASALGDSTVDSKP
The assay can be described thus: Flow cytometry binding of hu24 mAb to cancer cell lines with endogenous PTK7 (Example 3). Here is the method: Briefly, adherent cells were dissociated with TrypLE™ Express (Gibco® No 12604-021) which was then neutralized with culture media. Suspension cells were harvested by centrifugation. Cells were resuspended in staining buffer (PBS with 3% BSA) with the stated concentration of mAb and incubated on ice for 30 minutes. Cells were washed in staining buffer, resuspended in staining buffer with phycoerythrin (PE)-labeled anti-human antibody (Jackson ImmunoResearch No 109-115-098) and incubated on ice for 30 minutes. Cells were washed, resuspended in staining buffer with 7-AAD viability stain (BD Biosciences, Pharmingen No 51-68981E) and analyzed by flow cytometry with a BD FACSCalibur™. The mean fluorescence intensity (MFI) in the PE channel of the viable cell population was determined for each sample.

B1: hu24 (antibody)
heavy: QVQLVQSGPEVKKPGASVKVSCKASGYTFTDYAVHWVRQAPGKRLEWIGVISTYNDYTYNNQDFKGRVTMTRDTSASTAYMELSRLRSEDTAVYYCARGNSYFYALDYWGQGTSVTVSS[letters of human IgG1 constant region omitted]
light: EIVLTQSPATLSLSPGERATLSCRASESVDSYGKSFMHWYQQKPGQAPRLLIYRASNLESGIPARFSGSGSGTDFTLTISSLEPEDFAVYYCQQSNEDPWTFGGGTKLEIKRTVAAPSVFIFPPSDEQLKSGTASVVCLLNNFYPREAKVQWKVDNALQSGNSQESVTEQDSKDSTYSLSSTLTLSKADYEKHKVYACEVTHQGLSSPVTKSFNRGEC
The molecule B1 returned an MFI (H446 (lung cancer), 0.1 μg/mL) of 95; an MFI (H446 (lung cancer), 1 μg/mL) of 342; an MFI (H446 (lung cancer), 10 μg/mL) of 411; an MFI (H661 (lung cancer), 0.1 μg/mL) of 60; an MFI (H661 (lung cancer), 1 μg/mL) of 243; an MFI (H661 (lung cancer), 10 μg/mL) of 309. The MFI runs as follows: (U2OS (osteosarcoma), 0.1 μg/mL) 122; (U2OS (osteosarcoma), 1 μg/mL) 385; (U2OS (osteosarcoma), 10 μg/mL) 431.
